Laboratory results: article PMC10163088
Results are given in words; binding and its absence hold for the method and conditions named. Binding seen in cells or lysates may run through a third protein. Some entries that bind do so weakly or less than the wild type. Sequences can lack the tags named with a protein.

Legend:
[1] = molecular target: T1, GST-Fkh1 (full-length) (S. cerevisiae) (UniProt P40466); assay: pull-down; GST fusions of repressors (full-length or length variants) immobilised on GSH sepharose, incubated with bacterial total protein extracts containing HA-tagged Sin3, Cyc8 or Tup1 (or Tup1 length variants); elution with free GSH, anti-HA blot (Figs. 1, 3, 4, 5); only the target purified
T1 sequence: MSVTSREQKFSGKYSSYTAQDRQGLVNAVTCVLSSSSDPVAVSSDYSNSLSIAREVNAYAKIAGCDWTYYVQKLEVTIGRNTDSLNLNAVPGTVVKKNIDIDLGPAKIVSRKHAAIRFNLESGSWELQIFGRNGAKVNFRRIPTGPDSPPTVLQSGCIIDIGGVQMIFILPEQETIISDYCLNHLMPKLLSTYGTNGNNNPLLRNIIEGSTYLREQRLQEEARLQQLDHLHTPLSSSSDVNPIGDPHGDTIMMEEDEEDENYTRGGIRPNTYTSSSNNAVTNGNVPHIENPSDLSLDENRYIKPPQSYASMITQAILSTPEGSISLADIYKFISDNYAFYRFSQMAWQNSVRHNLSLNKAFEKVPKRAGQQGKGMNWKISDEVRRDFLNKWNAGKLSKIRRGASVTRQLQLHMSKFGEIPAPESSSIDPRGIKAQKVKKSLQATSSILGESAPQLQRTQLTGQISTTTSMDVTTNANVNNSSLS

[2] = molecular target: T2, GST-Opi1 (full-length) (S. cerevisiae) (UniProt P21957); assay: as above
T2 sequence: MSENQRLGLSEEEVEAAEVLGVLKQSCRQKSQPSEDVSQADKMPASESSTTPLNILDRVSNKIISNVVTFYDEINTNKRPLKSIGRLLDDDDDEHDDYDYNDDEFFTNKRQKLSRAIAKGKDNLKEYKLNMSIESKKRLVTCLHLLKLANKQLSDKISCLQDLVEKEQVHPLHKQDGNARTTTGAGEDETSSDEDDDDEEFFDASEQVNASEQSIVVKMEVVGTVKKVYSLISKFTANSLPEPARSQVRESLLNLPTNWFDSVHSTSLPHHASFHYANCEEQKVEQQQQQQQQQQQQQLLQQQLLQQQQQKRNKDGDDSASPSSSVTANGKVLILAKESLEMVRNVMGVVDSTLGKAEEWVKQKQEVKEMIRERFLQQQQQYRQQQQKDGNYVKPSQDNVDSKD

[3] = molecular target: T1, GST-Fkh1 (full-length) (S. cerevisiae); assay: pull-down; GST fusions of full-length repressors immobilised on GSH sepharose, incubated with protein extracts from yeast transformants containing epitope-tagged Sin3 length variants; anti-HA blot (Fig. 2); only the target purified
[4] = molecular target: T3, GST-Yox1 (full-length) (S. cerevisiae) (UniProt P34161); assay: as above
T3 sequence: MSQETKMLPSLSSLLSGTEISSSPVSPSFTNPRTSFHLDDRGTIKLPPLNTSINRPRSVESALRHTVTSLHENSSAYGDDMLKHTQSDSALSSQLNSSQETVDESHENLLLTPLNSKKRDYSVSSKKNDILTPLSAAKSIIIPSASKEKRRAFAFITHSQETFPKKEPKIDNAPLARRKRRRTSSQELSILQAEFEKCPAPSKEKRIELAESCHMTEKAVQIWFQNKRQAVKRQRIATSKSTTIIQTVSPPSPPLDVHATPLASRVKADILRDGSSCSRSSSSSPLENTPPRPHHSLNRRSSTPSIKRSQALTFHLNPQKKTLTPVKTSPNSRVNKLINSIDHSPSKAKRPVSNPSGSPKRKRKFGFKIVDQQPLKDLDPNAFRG

[5] = molecular target: T4, GST-Rox1 (full-length) (S. cerevisiae) (UniProt P25042); assay: as above
T4 sequence: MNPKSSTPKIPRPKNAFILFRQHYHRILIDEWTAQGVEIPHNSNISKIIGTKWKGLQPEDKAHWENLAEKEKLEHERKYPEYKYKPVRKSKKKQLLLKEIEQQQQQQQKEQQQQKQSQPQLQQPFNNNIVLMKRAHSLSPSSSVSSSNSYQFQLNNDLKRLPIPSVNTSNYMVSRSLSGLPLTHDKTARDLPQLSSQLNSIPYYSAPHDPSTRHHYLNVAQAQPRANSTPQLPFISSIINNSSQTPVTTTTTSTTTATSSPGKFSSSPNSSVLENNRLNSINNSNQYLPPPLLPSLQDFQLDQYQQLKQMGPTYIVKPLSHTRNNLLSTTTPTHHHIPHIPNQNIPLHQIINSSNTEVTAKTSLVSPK

[6] = molecular target: T5, GST-Xbp1 (full-length) (S. cerevisiae) (UniProt P40489); assay: as above
T5 sequence: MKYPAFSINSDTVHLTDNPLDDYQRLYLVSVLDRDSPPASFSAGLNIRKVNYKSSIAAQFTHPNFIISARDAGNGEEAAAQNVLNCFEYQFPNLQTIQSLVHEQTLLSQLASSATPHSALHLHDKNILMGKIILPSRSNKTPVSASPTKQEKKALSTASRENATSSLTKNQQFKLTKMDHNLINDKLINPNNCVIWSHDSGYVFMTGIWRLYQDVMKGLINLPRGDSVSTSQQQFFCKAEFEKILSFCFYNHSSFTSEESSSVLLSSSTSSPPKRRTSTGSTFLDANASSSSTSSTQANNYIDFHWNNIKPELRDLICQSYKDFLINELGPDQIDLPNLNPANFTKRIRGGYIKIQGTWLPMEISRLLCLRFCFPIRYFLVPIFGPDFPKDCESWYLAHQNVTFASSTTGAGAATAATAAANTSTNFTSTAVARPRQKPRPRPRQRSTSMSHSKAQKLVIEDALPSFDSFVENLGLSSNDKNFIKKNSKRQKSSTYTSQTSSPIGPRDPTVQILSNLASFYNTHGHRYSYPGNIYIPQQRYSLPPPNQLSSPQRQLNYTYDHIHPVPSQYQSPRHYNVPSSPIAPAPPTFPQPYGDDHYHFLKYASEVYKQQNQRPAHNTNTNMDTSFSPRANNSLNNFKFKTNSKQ

Measured: binding

HA3-Sin3 (full-length, aa 1-1536; pSW11) (from UniProt P22579 1-1536)
binds: [1] | [2]

epitope-tagged Sin3 length variant 301-600 (PAH2; pYJ91) (from UniProt P22579 301-600) (domain or fragment)
binds: [3] | [4] | [5] | [6]

B1: epitope-tagged Sin3 length variant 1-300 (PAH1; pCW83) (domain or fragment, UniProt P22579 1-300)
chain: MSQVWHNSNSQSNDVATSNDATGSNERNEKEPSLQGNKPGFVQQQQRITLPSLSALSTKEEDRRDSNGQQALTSHAAHILGYPPPHSNAMPSIATDSALKQPHEYHPRPKSSSSSPSINASLMNAGPAPLPTVGAASFSLSRFDNPLPIKAPVHTEEPKSYNGLQEEEKATQRPQDCKEVPAGVQPADAPDPSSNHADANDDNNNNENSHDEDADYRPLNVKDALSYLEQVKFQFSSRPDIYNLFLDIMKDFKSQAIDTPGVIERVSTLFRGYPILIQGFNTFLPQGYRIECSSNPDDPI
binds: [3] | [4] | [5] | [6]
